Source: PMC4336329 (PLoS ONE, 2015)
The campaign covered roughly 310,000 compounds. About 14,000 (4.5%) showed an effect of 50% or more. Effects have a minus sign here. Some of the results follow.
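Note: peak tail current of the secondary pulse compared with the same well before compound.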

Each compound was assayed against human ether-à-go-go-related gene (hERG) potassium channel (human, UniProt Q12809) (assay: primary screen, population patch clamp on CHO cells stably expressing hERG).
Sequence of human ether-à-go-go-related gene (hERG) potassium channel (Q12809 whole entry, looked up): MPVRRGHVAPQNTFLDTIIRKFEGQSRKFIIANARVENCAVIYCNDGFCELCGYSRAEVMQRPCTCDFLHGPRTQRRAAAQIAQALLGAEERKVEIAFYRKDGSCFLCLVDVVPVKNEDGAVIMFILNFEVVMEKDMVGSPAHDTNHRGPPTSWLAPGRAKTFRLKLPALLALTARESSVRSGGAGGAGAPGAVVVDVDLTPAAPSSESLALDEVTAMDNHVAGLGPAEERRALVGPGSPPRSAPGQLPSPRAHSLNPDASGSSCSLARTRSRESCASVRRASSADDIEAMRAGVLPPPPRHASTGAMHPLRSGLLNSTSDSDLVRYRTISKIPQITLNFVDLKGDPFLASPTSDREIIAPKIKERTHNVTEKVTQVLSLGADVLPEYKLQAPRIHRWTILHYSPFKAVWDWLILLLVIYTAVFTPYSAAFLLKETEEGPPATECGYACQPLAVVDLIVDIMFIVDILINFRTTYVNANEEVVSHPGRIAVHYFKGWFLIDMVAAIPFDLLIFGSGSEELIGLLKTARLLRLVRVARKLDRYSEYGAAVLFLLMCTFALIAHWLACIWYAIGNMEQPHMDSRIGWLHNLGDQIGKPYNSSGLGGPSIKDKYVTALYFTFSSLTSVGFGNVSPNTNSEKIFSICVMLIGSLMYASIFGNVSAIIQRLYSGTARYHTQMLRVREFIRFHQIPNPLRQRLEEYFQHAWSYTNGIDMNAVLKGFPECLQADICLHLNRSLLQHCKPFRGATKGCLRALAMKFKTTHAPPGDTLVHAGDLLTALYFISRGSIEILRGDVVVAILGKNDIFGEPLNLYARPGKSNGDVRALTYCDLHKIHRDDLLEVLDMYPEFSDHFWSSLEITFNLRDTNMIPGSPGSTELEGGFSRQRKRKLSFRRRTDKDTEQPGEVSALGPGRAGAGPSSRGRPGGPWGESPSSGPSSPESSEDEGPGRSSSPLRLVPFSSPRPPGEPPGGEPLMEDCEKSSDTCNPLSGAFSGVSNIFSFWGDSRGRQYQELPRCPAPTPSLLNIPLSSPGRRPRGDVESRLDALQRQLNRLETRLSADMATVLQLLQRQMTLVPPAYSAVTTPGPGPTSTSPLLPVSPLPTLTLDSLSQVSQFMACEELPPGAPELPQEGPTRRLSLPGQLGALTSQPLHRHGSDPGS
`CCC(CC)C(=O)c1c[nH]c(C(=O)NCc2cccs2)c1` was tested, and the “hERG current change (%, negative = inhibition) at 10uM” value was 18.6%.
`O=C(C1=C(O)C(=O)N(CCN2CCOCC2)C1c1ccncc1)c1ccco1` (stereo not drawn) was tested, and the “hERG current change (%, negative = inhibition) at 10uM” value was 0.392%.
In the case of `C[C@H](NS(=O)(=O)c1ccc(Cl)cc1)C(=O)OCC(=O)c1ccc[nH]1`, the “hERG current change (%, negative = inhibition) at 10uM” value is reported as -26.6%.
`N#CCC(=O)Nc1ccc(C(=O)OCc2ccccc2Oc2ccccc2)cc1` was tested, and the “hERG current change (%, negative = inhibition) at 10uM” value was 17.8%.
In the case of `O=C(Cc1ccccc1F)NCC(=O)Nc1ccccc1Br`, the “hERG current change (%, negative = inhibition) at 10uM” value is reported as 20.3%.
For `O=C(CC(Nc1ccc(Cl)cc1)C(=O)O)c1ccccc1` (stereo not drawn), the “hERG current change (%, negative = inhibition) at 10uM” value was 4.2%.
In the case of `Cc1ccc(C(C(=O)NC2CCCC2)N(C(=O)c2csnn2)c2ccccc2)o1` (stereo not drawn), the “hERG current change (%, negative = inhibition) at 10uM” value is reported as -2.7%.
With `COc1ccc(N=C2SC(CC(=O)Nc3ccccc3)C(=O)N2Cc2ccco2)cc1` (stereo not drawn) the “hERG current change (%, negative = inhibition) at 10uM” value was 17%.
With `O=C(CSc1nccn1-c1cccc(Cl)c1)Nc1ccc2c(c1)OCCO2` the “hERG current change (%, negative = inhibition) at 10uM” value was -44.6%.
For `CN=C1c2cc3c(Br)c(OC)ccc3n2CCN1C.Cl`, the “hERG current change (%, negative = inhibition) at 10uM” value was -66.9%.
For `COc1ccc(OC)c2c1sc(=NC(=O)C(C)C)n2C`, the “hERG current change (%, negative = inhibition) at 10uM” value was 13.2%.
With `CCOc1ccc(N=C2NC(=O)S/C2=C\c2ccc(OC)cc2)cc1` the “hERG current change (%, negative = inhibition) at 10uM” value was 2.17%.
With `O=C(CCC1CCCCC1)NCCS(=O)(=O)N1CCN(c2ccccc2F)CC1` the “hERG current change (%, negative = inhibition) at 10uM” value was 14.1%.
`CC(C)C[C@H](NC(=O)OC(C)(C)C)c1nnc(SCC(=O)Nc2ccc(Br)cc2)o1` was tested, and the “hERG current change (%, negative = inhibition) at 10uM” value was -16%.
In the case of `CSc1ccc(S(=O)(=O)NCC(=O)OC2CCOC2=O)cc1[N+](=O)[O-]` (stereo not drawn), the “hERG current change (%, negative = inhibition) at 10uM” value is reported as -6.04%.
For `O=C(CNc1ccc(Cl)cc1)c1ccc(Br)cc1`, the “hERG current change (%, negative = inhibition) at 10uM” value was 13.6%.
In the case of `COc1cc(C(=O)NCCSc2ccccc2)cc(OC)c1OC`, the “hERG current change (%, negative = inhibition) at 10uM” value is reported as 8.28%.
With `CCN1CCN(CC(=O)Nc2sc3c(c2C#N)CCC3)CC1` the “hERG current change (%, negative = inhibition) at 10uM” value was -18.1%.
With `Cc1ccc(-c2cc(C(F)F)n3ncc(C(=O)N4CCCCC4c4cccnc4)c3n2)cc1` (stereo not drawn) the “hERG current change (%, negative = inhibition) at 10uM” value was -36.4%.
With `Cc1ccc(C)n1NC(=O)c1ccc(Cl)cc1` the “hERG current change (%, negative = inhibition) at 10uM” value was -8.87%.
For `CC(C)NC(=O)/C=C/C(=O)O`, the “hERG current change (%, negative = inhibition) at 10uM” value was 3.23%.
`CCn1c(SCC(=O)NC2CCCCC2)nc2ccccc2c1=O` was tested, and the “hERG current change (%, negative = inhibition) at 10uM” value was -7.95%.
In the case of `CCC(=O)Nc1ccc2nc(C3CC3)n(Cc3ccc(C(C)(C)C)cc3)c(=O)c2c1`, the “hERG current change (%, negative = inhibition) at 10uM” value is reported as 9.1%.
With `CCN1C(=NCCc2ccccn2)N[C@@H](c2cccc(F)c2)C(C(=O)OC)=C1C` the “hERG current change (%, negative = inhibition) at 10uM” value was -56.7%.
With `COC(=O)c1cc(S(=O)(=O)N(Cc2ccccc2)C(C)(C)C)c[nH]1` the “hERG current change (%, negative = inhibition) at 10uM” value was -7.09%.
With `CCSc1nnc(NC(=O)/C=C/c2ccc3c(c2)OCO3)s1` the “hERG current change (%, negative = inhibition) at 10uM” value was 30.2%.
`Cc1nc(NC(=O)c2ccc(Cl)cc2)nc2cc3c(cc12)OCO3` was tested, and the “hERG current change (%, negative = inhibition) at 10uM” value was 1.55%.
For `Cc1nnsc1C(=O)NNC(=O)c1cccc2ccccc12`, the “hERG current change (%, negative = inhibition) at 10uM” value was 6.04%.
`Nn1c(-c2cccc(Br)c2)n[nH]c1=S` was tested, and the “hERG current change (%, negative = inhibition) at 10uM” value was 11%.
With `CCOc1ccccc1Nc1ccc(C(=O)O)cc1N` the “hERG current change (%, negative = inhibition) at 10uM” value was -5.76%.
In the case of `Cn1nc(C(F)(F)F)cc1-c1ccc(S(N)(=O)=O)s1`, the “hERG current change (%, negative = inhibition) at 10uM” value is reported as 1.59%.
In the case of `CCOC(=O)CSc1nc(C)c(C(C)=O)cc1C#N`, the “hERG current change (%, negative = inhibition) at 10uM” value is reported as -5.39%.
In the case of `CCCCn1c(=O)c(C(=O)Nc2ccccc2N)c(O)c2ccccc21`, the “hERG current change (%, negative = inhibition) at 10uM” value is reported as 16.3%.
In the case of `CCC1CCCCN1CC(=O)c1ccc(OC(F)F)cc1` (stereo not drawn), the “hERG current change (%, negative = inhibition) at 10uM” value is reported as -77.7%.
With `Cn1c(=O)c2c([nH]c(OCc3ccc(Cl)cc3Cl)[n+]2Cc2ccc(F)cc2)n(C)c1=O` the “hERG current change (%, negative = inhibition) at 10uM” value was 11.6%.
For `CC(Oc1ccc(F)cc1)C(=O)NN` (stereo not drawn), the “hERG current change (%, negative = inhibition) at 10uM” value was 18.6%.
In the case of `Cc1ccc2nc(Cl)nc(-c3ccccc3)c2c1`, the “hERG current change (%, negative = inhibition) at 10uM” value is reported as 0.821%.
`N/C(Cc1ccc(Cl)cc1Cl)=N\OC(=O)c1cccs1` was tested, and the “hERG current change (%, negative = inhibition) at 10uM” value was 1.97%.
With `O=C(CCN1CCN(c2ccc(F)cc2)CC1)Nc1ccc(F)cc1` the “hERG current change (%, negative = inhibition) at 10uM” value was -56.8%.
`CCCCNCC1CCCO1` (stereo not drawn) was tested, and the “hERG current change (%, negative = inhibition) at 10uM” value was 17.4%.
In the case of `O=C(O)c1cccnc1SC1CC(=O)N(c2cccc3ccccc23)C1=O` (stereo not drawn), the “hERG current change (%, negative = inhibition) at 10uM” value is reported as 17.4%.
`CC(C)[C@H](NC(=O)[C@H](Cc1ccccc1)n1c(=O)[nH]c2ccccc2c1=O)C(=O)N[C@@H](Cc1ccccc1)C(=O)O` was tested, and the “hERG current change (%, negative = inhibition) at 10uM” value was 12.5%.
In the case of `Cc1cc(NC(=O)COC(=O)c2c(C)nn(-c3ccccc3)c2C)no1`, the “hERG current change (%, negative = inhibition) at 10uM” value is reported as 13.7%.
In the case of `O=S(=O)(c1ccc(F)c(F)c1)N1CCC2(CC1)OCCO2`, the “hERG current change (%, negative = inhibition) at 10uM” value is reported as 7.51%.
With `COc1ccccc1N1CCN(C(=O)c2ccc(NC(C)=O)cc2)CC1` the “hERG current change (%, negative = inhibition) at 10uM” value was 2.46%.
